± gives the standard deviation of the averaged measurements. Some of the results follow.
tested on: PfAP2-LT AP2 domain (GST-tagged); test: gcPBM binding intensity (ln(normalized median fluorescence intensity)); higher = stronger DNA binding
How it was run: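 An Agilent 4 × 180k array carrying primer-extended double-stranded 36-bp intergenic genomic probes and negative controls received GST-tagged P. falciparum DNA-binding domains expressed in E. coli, about 25 μg on average, for 1 h. The binding buffer contained 1× PBS, 1% milk, 0.2 mg/ml BSA, 0.5% salmon testes DNA and 0.03% Triton X-100. Binding intensity is the top Masliner-normalised natural-log median intensity across replicate spots of either probe orientation, read after Alexa488 anti-GST antibody staining and a 488 nm scan.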

Sequence	gcPBM binding intensity (ln)
TACAAGTATAAATAAGCACACATGTGGATATGTACA [CACACA_site4229]	9.39 ± 0.3
ATGAATCCTTAATATGAACACACAAATATATTACAC [CACACA_site7943]	8.96 ± 0.38
TTTTTTATTTATCCTATATATTACTAAATGAAGAAC [GTGCAC_negctrl_site333]	8.34 ± 0.53
TTATTTCAAAGTAAATCAGTAAATATTTGTTTTCTT [CACACA_negctrl_site1572]	8.34 ± 0.47
TCCTTATTTATATAATGTACTTTTTTTTTTCATTTT [XGTACX_site4275]	8.69 ± 0.36
TAAAGTTAAAAATTATGTACATATATATTGTATATT [XGTACX_site5528]	8.68 ± 0.4
GATAAAATAGGACCATATTCTTTAAAACGATAAAAT [XGTACX_negctrl_site405]	8.73 ± 0.51
ATATATATATATTTATGTACATATACATAATGTATA [XGTACX_site6387]	8.88 ± 0.35
TTATTTTATATATCACGTACATAGTTGTCTTCTTTT [XGTACX_site2906]	8.97 ± 0.47
TAAGAAGTATTTTCCTGTACATATTTTATATGTATG [XGTACX_site4658]	8.78 ± 0.36
AAAATATAAAATAATGCACACATAAACAAAAAATCA [CACACA_site8382]	9.16 ± 0.48
TAGTAAATAACAAAAGGAAAAATTAATGAGGCAAAA [TGCATGCA_negctrl_site526]	8.8 ± 0.47
CATCATAGCATTCCTCGTACAAATATAAACATATCA [XGTACX_site2711]	8.8 ± 0.55
ATGTTTTGTAAAATGATTAAATATTAAGATTCAATA [CACACA_negctrl_site1743]	8.39 ± 0.38
CTTAGAGTATTTAAATGTACACGTTTGTATATGTAT [XGTACX_site1767]	8.81 ± 0.47
TAAAAAAAAATAAATACATGCATATAATACATTATA [TGCATGCA_site518]	8.72 ± 0.4
TAATGAGGAAAAAGTGTGTTAAGATTTTATAATTTA [GTGCAC_negctrl_site608]	8.56 ± 0.42
TGAACATGTTAAAATAAACACACAGCTAAGGTTTTT [CACACA_site7934]	8.94 ± 0.4
ATATATATATTAACAATACACACGTGTATACCTTAT [CACACA_site2217]	9.2 ± 0.4
TATCATATAAATACATGTACATATTTGGAAAATAAT [XGTACX_site5373]	8.84 ± 0.38
TCAGTTAATGTATATGTACACACGGGGTGTATATAT [CACACA_site9103]	9.28 ± 0.19
ATATATATATTAAGGGGTACGTAAAAAATTGGGAAG [XGTACX_site7322]	8.95 ± 0.42

Sequence	gcPBM binding intensity (ln)
AAATTATATCCCCTTTGTACTTACAGATCTTTATAC [XGTACX_site8163]	9.06 ± 0.44
ATAAATAAATACATATGTACATATATATATATATAT [XGTACX_site7145]	9.64 ± 0.26
ATAAAATACAGATAAACACACATATAAACACCCATA [CACACA_site5381]	9.56 ± 0.32
CTTTATTTTTTATACACACACAATATGTATAAATAT [CACACA_site7638]	9.14 ± 0.3
TACATATTTTTTATGTGTACATATTTTTTATGTGTG [XGTACX_site444]	8.95 ± 0.42
TTCTTTTTTCTTTATGGTACGTGTAATATATATCAA [XGTACX_site7960]	8.82 ± 0.45
CCCAATAATTAAACAACACACATATATATATGTAAT [CACACA_site3084]	9.36 ± 0.34
AAAATATAAATATATTGTACTGTTATATAATAAAAT [XGTACX_site2132]	8.57 ± 0.45
AATGTGAAATATAAATGTACATAAATATATATATAT [XGTACX_site8710]	9.25 ± 0.35
TAACTATCATGTATTACACACAATATTTATTATAGA [CACACA_site7301]	8.76 ± 0.35
TTTATAAAATTATTTGCATGTAACAATTATAAATTG [TGCATGCA_site1026]	8.4 ± 0.5
TTTTTTTTTCTTTCTCTTTAAATATTAATTAAAAAA [GTGCAC_negctrl_site90]	7.83 ± 0.45
TATATTTATTTATATACACACATATTTATAAATATA [CACACA_site7047]	8.71 ± 0.44
AGATTTAAATATCATACACACTTTATCTATAATACA [CACACA_site6581]	8.64 ± 0.39
CAAAATTGACATGACGCACACAAGTGTAGATATTTT [CACACA_site1250]	9.27 ± 0.42
TAGTTGTTTATAACACGTTGACAGAAATGTTATGTA [GTGCAC_negctrl_site624]	8.64 ± 0.35
GTACAAAAATAAATTGCACACATTTTAATAAAAAAA [CACACA_site2130]	8.84 ± 0.47
TCTCTCTTATAAAATACACACGAACAATCATATTAT [CACACA_site8065]	8.73 ± 0.38
ATTTTTTTTTTTAAATGTACATAATATATATATAAT [XGTACX_site2686]	8.63 ± 0.37
TATTAAACTAAATGTAGTACATACACAAACGTAATC [XGTACX_site4905]	8.85 ± 0.43
TATTCGTGCAATAATGGTACACTTATAAATTATTCA [XGTACX_site1430]	8.55 ± 0.32
AAAAAAATTTGTATCACACACGTATTATAAAAAAAT [CACACA_site4182]	8.93 ± 0.47

Sequence	gcPBM binding intensity (ln)
CGAACATTATAAATGTCATTTTTTCCAACTTGATCT [GTGCAC_negctrl_site501]	8.58 ± 0.41
AAGCATTTCCATGGTGGTACTATACAAATAATAATT [XGTACX_site6193]	8.7 ± 0.55
TATAAATAATGTTAAACACACATACCGATATATAAC [CACACA_site7306]	9.03 ± 0.36
AGTGTATTTTTATGTTGTACATGTAATATTTTTGAT [XGTACX_site541]	8.96 ± 0.3
TATATAATATATTAATGTACGTTATATGTATTCCTT [XGTACX_site6140]	8.89 ± 0.52
TAATTCATCATATGCACACACAATACCAAAATGTGC [CACACA_site191]	9.42 ± 0.28
TACAGATATTCATATAAACACACATACAAATTATGT [CACACA_site7929]	9.02 ± 0.42
CTTTTTTTTTAAATATCACACACATATAATATATTC [CACACA_site9222]	9.04 ± 0.45
AAACAGAATGCATATACACACATACAAAAAAGTGCA [CACACA_site6591]	9.43 ± 0.47
TGTGTACCGATATTAAGTTTAACGTTATAAAAATAT [CACACA_negctrl_site1547]	8.65 ± 0.55
TTTCTAAACCGGTACAGTACATATAAAAATAGAATA [XGTACX_site6662]	8.77 ± 0.61
AAAGGACAAAAAAATGCATGCCGTTAAATTATGTAC [TGCATGCA_site512]	9.05 ± 0.47
TATGTGGCACAAAAGGGTACATATAATTTATACAGG [XGTACX_site5499]	8.88 ± 0.6
AATTATTGTATGCTATACGTTCCCCTCTAATTTATC [CACACA_negctrl_site1052]	9.02 ± 0.45
TATTATTTTATGAATACACACATATACGAAAATATT [CACACA_site964]	8.72 ± 0.34
ATTGGGTACAAATACACACACATATAAATATTAATA [CACACA_site7173]	9.41 ± 0.45
TATTTTTATATAATGTGTACTTATACCTTATTTTTT [XGTACX_site1658]	8.82 ± 0.46
TATATTTTTTTTGTGCGTACATACCATTTTAATAAT [XGTACX_site2751]	8.97 ± 0.49
CACAAACAAAAACACACACACACACCCACAAAAATG [CACACA_site2429]	10.2 ± 0.34
CTAAAAATCTTTTGTTGTACTTTTAGATAATCAGGA [XGTACX_site3968]	8.24 ± 0.4
TACATATTTATATACACACACACCGTCCGTGTTAAA [CACACA_site7413]	9.43 ± 0.28
AAGTAAAAAAATAGCACACACACAAAAACACAGACA [CACACA_site4839]	10.1

Sequence	gcPBM binding intensity (ln)
AAAGGGATGTTCATTCTTTTTTTTTTTTTTGTATAT [CACACA_negctrl_site511]	8.59 ± 0.45
AAAAAAAAAAAACACACACACACACTAATACATACA [CACACA_site8135]	10.1 ± 0.12
TTTCCCTACCAAAAATGTACTTATAAGCGTTTTTAT [XGTACX_site739]	8.77 ± 0.41
TTTTTAAATTATTGCACACAAAAATGAAAGGAAAAA [CACACA_site1455]	8.71 ± 0.41
CACTAAAATAAACACACACACACACCGATATATATA [CACACA_site9379]	9.96 ± 0.014
TATATTTATATGATAACACACATAAATTATACATTT [CACACA_site1671]	8.71 ± 0.4
CTTGTCATTTTGCACACACACATGTATAGGTTATTA [CACACA_site7431]	9.67 ± 0.16
TTAATTTTATTTTTTTGTACACATAAATATTATAAA [XGTACX_site4680]	8.41 ± 0.47
TTTTTTTAAATATACACACACATTTATACCTATATA [CACACA_site7572]	9.2 ± 0.4
TATAACTATAAAAGTAGTACACATATATATTATATA [XGTACX_site1391]	8.74 ± 0.38
TATATATATATAGACACACACACACCCATATATATA [CACACA_site4117]	9.94 ± 0.23
AATGGTTTAAAATACTGTACATATATATAAAAGTAA [XGTACX_site6187]	8.73 ± 0.46
TTCCTAATTGACAACACACACAACAAAAAAGGGATT [CACACA_site1279]	9.34 ± 0.36
TACCTTTTTTGTTTTATGCACACCATATAACCAAGG [CACACA_site30]	8.98 ± 0.42
TTTTTTTTTCCGTGTTGTACAAAAAAAAAGATTTTG [XGTACX_site3925]	8.21 ± 0.39
TATAACTATTCACAGACATGCACATAATAACAATAA [TGCATGCA_site207]	8.88 ± 0.4
AAGAAATATTTATACACACACACAAACATATAAATA [CACACA_site6981]	9.9 ± 0.24
TAAAAAAAAAAAAAAGCATGCTATATTATATTACAC [TGCATGCA_site241]	8.7 ± 0.39
AGTCTGAATAAAATTACACACATATACATATATATA [CACACA_site1780]	8.96 ± 0.4
ATATATAAATTTTAGTGTACATTAATTTTTTTTTTT [XGTACX_site7782]	8.59 ± 0.45
AAAAAAAAAAAAAAAACACACAATAAAGTAAAATTT [CACACA_site135]	8.8 ± 0.43
TAAATATATTAAGCTTGTACATGAAAAAAAAAAAAA [XGTACX_site3264]	8.59 ± 0.4
